PubChem BioAssay AID1030 (National Center for Advancing Translational Sciences (NCATS), 2008)
Out of some 220,000 compounds screened, about 16,000 (7.3%) were called active. Inconclusive results, whose numbers are uncertain, are shown with a selection of clear calls. The call rests on the fitted dose curve; in most records, active means well fitted inhibition curve with a large enough effect (not every such curve was filed as active); inconclusive means small, poorly fitted or top-dose-only effect, or another doubt; inactive means no such curve, though single readings can be large or run the other way. Potencies of inconclusive entries are left out as doubtful fits.

target: Aldehyde dehydrogenase 1A1 (Homo sapiens) (UniProt P00352); assay: qHTS Assay for Inhibitors of Aldehyde Dehydrogenase 1 (ALDH1A1); conditions: Purified ALDH1A1, NADH fluorescence, propionaldehyde substrate; series mostly up to 75.3 µM;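 on activity, negative = inhibition: plate controls were no enzyme wells and a reference inhibitor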
Potency means the concentration at half of the fitted maximal effect; tags describe the fitted curve by direction and shape.

Chain of UniProt P00352 (P00352 whole entry, looked up): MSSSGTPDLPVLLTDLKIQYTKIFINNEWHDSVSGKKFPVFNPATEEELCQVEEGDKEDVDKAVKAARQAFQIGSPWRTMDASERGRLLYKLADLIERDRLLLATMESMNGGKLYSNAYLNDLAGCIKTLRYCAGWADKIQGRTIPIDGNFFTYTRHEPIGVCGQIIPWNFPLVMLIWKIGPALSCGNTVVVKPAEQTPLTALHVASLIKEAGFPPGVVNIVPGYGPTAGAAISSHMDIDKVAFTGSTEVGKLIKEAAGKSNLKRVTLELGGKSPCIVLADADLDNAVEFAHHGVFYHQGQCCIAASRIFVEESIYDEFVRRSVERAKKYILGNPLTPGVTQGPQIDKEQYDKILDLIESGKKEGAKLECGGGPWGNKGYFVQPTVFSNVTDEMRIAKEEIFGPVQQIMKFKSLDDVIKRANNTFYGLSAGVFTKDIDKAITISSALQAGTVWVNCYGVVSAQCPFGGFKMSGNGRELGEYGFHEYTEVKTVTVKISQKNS

| SMILES | Potency | activity, negative = inhibition |
| --- | --- | --- |
| Cc1ccc2cc(CCNC(=O)c3ccc(Br)o3)c(=O)[nH]c2c1 | inconclusive [inhibitor, partial curve] |  |
| CCCn1c(SCC(=O)c2c[nH]c3ccccc23)nnc1-c1ccncc1 | inactive |  |
| Cc1cc(N2CCN(c3ccccc3F)CC2)nc2cc(O)ccc12 | inconclusive [inhibitor, single point] |  |
| CCOC(=O)c1c(C)nc2c(c(SC)nn2-c2ccccc2)c1N | inconclusive [inhibitor, partial curve] |  |
| Cc1ccc(/C=C(\C#N)c2nc3ccccc3[nH]2)s1 | inactive |  |
| CCOC(=O)N1CCC(Nc2c(NCCCN3CCN(C4CCCCC4)CC3)c(=O)c2=O)CC1 | inactive |  |
| O=C(Nc1ccc(N2CCN(c3ccc(O)cc3)CC2)cc1)Oc1ccccc1 | active: 11.2 µM |  |
| CCOC(=O)N1CCC(N2C(=O)c3ccccc3C2Nc2ccccc2C)CC1 (stereo not given) | inconclusive [inhibitor, single point] |  |
| COC(=O)C1Cc2ccccc2CN1C(=O)CCl (stereo not given) | active: 0.398 µM |  |
| COc1ccc(C(CNC(=O)C2CC(=O)N(Cc3ccc(C)cc3)C2)N(C)C)cc1 (stereo not given) | inconclusive [inhibitor, single point] |  |
| CCn1c(CSc2nc3ccccc3s2)n[nH]c1=S | inconclusive [inhibitor, single point] |  |
| COCCNC(=S)N(CCc1c(C)[nH]c2ccc(F)cc12)Cc1cccs1 | inconclusive [inhibitor, partial curve] |  |
| CCOC(=O)c1c(NC(=O)c2noc(C)c2[N+](=O)[O-])sc(C(C)=O)c1C | active: 25.1 µM |  |
| CCCN(CCC)C(=O)c1cc(-c2ccc3c(c2)OCO3)nc2ccccc12 | inconclusive [inhibitor, single point] |  |
| Cc1sc2nc(C3CC3)nc(SCC(=O)NCc3ccco3)c2c1C | inconclusive [inhibitor, single point] |  |
| O=C(c1cccc(N2C(=O)C3CC=CCC3C2=O)c1)N1CCCc2ccccc21 (stereo not given) | inconclusive [inhibitor, single point] |  |
| Cc1cccc(CNc2ncnc3ccc(-c4cccc(C#N)c4)cc23)c1 | inconclusive [inhibitor, single point] |  |
| O=C1NC(c2ccccc2)(C(F)(F)F)SC2=CCCCCN12 (stereo not given) | inconclusive [inhibitor, single point] |  |
| CCOc1cccc2sc(Cl)nc12 | inconclusive [inhibitor, single point] |  |
| O=C(c1cc2ncc(CCCl)cn2n1)N1CCCCCC1 | inconclusive [inhibitor, partial curve] |  |
| CC1Cc2ccccc2N1S(=O)(=O)c1cccc(C(=O)N2CCN(c3ncccn3)CC2)c1 (stereo not given) | inconclusive [inhibitor, partial curve] |  |
| OCC[n+]1ccc(/C=C/c2c[nH]c3ccccc23)cc1 | inconclusive [inhibitor, single point] |  |
| Cc1cc(C)cc(OCC(=O)Nc2ccc3c(c2)OCO3)c1 | inconclusive [inhibitor, single point] |  |

| SMILES | Potency | activity, negative = inhibition |
| --- | --- | --- |
| COc1ccc(NS(=O)(=O)c2cc(C)ccc2C)cc1 | active: 0.562 µM |  |
| O=c1nc2ccccc2c2n1CC(CN1CCN(c3ccccc3F)CC1)N2 (stereo not given) | inactive |  |
| CCCOc1ccc(-c2cn3ccccc3n2)cc1 | inconclusive [inhibitor, partial curve] |  |
| CSCSC1=C(C#N)C(c2ccccc2Cl)C(C(C)=O)=C(C)N1 (stereo not given) | active: 25.1 µM |  |
| COC(=O)C1C(=O)NCC1c1ccc(C)cc1 (stereo not given) | inactive |  |
| CCCCC(=O)NC(NC(=S)N1CCOCC1)C(Cl)(Cl)Cl (stereo not given) | active: 11.2 µM |  |
| Cc1cccc2sc(NNC(=O)c3cc(-c4cccs4)nc4ccccc34)nc12 | inconclusive [inhibitor, single point] |  |
| O=C(O)c1cn(Cc2ccccc2Cl)c2ccc(S(=O)(=O)N3CCOCC3)cc2c1=O | inactive |  |
| CCCCn1c(=S)[nH]c2c(oc3ccc(Cl)cc32)c1=O | inconclusive [inhibitor, full curve] |  |
| CC(=O)Nc1ccc(S(=O)(=O)N2CCN(c3cc(C)nc4ncnn34)CC2)cc1 | inconclusive [inhibitor, single point] |  |
| COc1ccc(S(=O)(=O)Nc2ccc3c(c2)OCCO3)cc1Cl | inconclusive [inhibitor, single point] |  |
| Cc1cc(OC(C)C(=O)N/N=C/CC(C)c2ccccc2)ccc1Cl (stereo not given) | inconclusive [inhibitor, single point] |  |
| Cc1c(Cl)c(C(=O)NC2CCCC2)nn1C | inactive |  |
| O=S(=O)(NCc1ccc2c(c1)OCO2)c1ccc2c(c1)oc1ccccc12 | inconclusive [inhibitor, single point] |  |
| O=C(Nc1cccc(C(=O)O)c1)/C(=C\C=C\c1ccccc1)NC(=O)c1ccccc1 | inconclusive [inhibitor, single point] |  |
| CCN(C(=O)COC(=O)c1[nH]c(=O)[nH]c(=O)c1N)c1ccccc1 | inconclusive [inhibitor, single point] |  |
| COC(=O)c1ccc(Sc2ccc(Cl)cc2)c(N)c1 | inconclusive [inhibitor, partial curve] |  |
| COC(=O)CN(c1nc(C)c(Br)c(OC)n1)S(=O)(=O)c1ccc(C)cc1 | inconclusive [inhibitor, partial curve] |  |
| Cc1ccc(S(=O)(=O)NNC(=O)c2sc3nc(C)cc(C)c3c2-n2cccc2)cc1 | active: 0.141 µM |  |
| COc1ccc2c(c1)c(C(=O)CN1CCC(C(N)=O)CC1)c(C)n2C | inactive |  |
| CCCCN=C1CC(C)(C)CC(=O)/C1=C(/O)CCCN1C(=O)c2ccccc2C1=O | inconclusive [inhibitor, partial curve, poor fit] |  |
| Oc1cc(O)c2c(c1)O[C@@H](c1ccc(O)c(O)c1)[C@H](O[C@@]1(c3cc(O)c(O)c(O)c3)Oc3cc(O)cc(O)c3[C@H](O)[C@@H]1O)C2 |  | inactive: 8.61% [at 13.5 µM] |
